From PubChem BioAssay AID624417 (National Center for Advancing Translational Sciences (NCATS), 2012)
The campaign covered roughly 410,000 compounds. About 6,400 (1.6%) were called active. This list was built around the results that the source calls inconclusive (neither active nor inactive); the mix of calls is not that of the screen. Calls come from the whole dose curve; as a rule, active = well fitted inhibition curve with a large enough effect; inconclusive = small, poorly fitted or top-dose-only effect; inactive = no such curve, though single readings can be large or run the other way. Potencies of inconclusive entries are left out as doubtful fits.
% is set by controls: 0 for no effect and ±100 for the full control effect; potency is the fitted concentration of half-maximal effect; tags give direction and shape of the fitted curve.
Note: nearly all actives have a fitted effect of over 55% in size.

What follows are molecules tested against Glucagon-like peptide 1 receptor (Homo sapiens) (UniProt P43220) (assay: qHTS of GLP-1 Receptor Inverse Agonists (Inhibition Mode)). Details: HEK293 GLP-1R CRE-luciferase, luminescence, 24 h, GLP-1R form is constitutively active; activity change, negative = inhibition: at 38.3 µM (top of the series) unless noted.
Chain of UniProt P43220 (P43220 whole entry, looked up): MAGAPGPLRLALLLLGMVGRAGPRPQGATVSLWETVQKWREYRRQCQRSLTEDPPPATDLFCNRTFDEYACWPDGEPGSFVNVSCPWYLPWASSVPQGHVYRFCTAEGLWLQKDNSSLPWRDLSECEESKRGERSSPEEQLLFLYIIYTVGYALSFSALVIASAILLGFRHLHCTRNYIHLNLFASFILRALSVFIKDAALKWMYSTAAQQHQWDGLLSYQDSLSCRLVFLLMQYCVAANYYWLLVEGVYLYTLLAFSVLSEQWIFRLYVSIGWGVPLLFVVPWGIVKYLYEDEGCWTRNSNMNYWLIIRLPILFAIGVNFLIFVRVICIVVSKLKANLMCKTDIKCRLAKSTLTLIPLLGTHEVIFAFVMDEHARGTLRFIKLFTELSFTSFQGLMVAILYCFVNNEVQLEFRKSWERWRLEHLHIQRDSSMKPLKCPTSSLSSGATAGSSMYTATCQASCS
Outline: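 qHTS in 1536-well format: reporter HEK293 cells expressing constitutive GLP-1R activity in DMEM + 10% Nu serum, 24 hr with compounds at 37 deg C, luminescence read after 12 min with detection reagent.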
For CCN(CCCNC(=O)c1ccc(Sc2ccc(C)cc2)c(NC(C)=O)c1)c1cccc(C)c1, the Potency was inconclusive [inhibitor, partial curve, poor fit].
c1ccc(COc2cccc(CNCc3ccccn3)c2)cc1 was tested, and the “activity change, negative = inhibition” value was inactive: 11.1%.
For O=C(c1ccccc1)N(Cc1ccc(F)cc1)Cc1nc2ccccc2c(=O)[nH]1, the “activity change, negative = inhibition” value was inactive: -25.5%.
For COC(=O)c1ccc(CN2C(=O)NC(c3ccccc3)(c3ccccc3)C2=O)o1, the “activity change, negative = inhibition” value was inactive: -15.6%.
COc1ccc(CN2CCN(Cc3ccc(C)cc3)CC2)c(OC)c1 was tested, and the activity change, negative = inhibition was inconclusive: -42.3% [inhibitor].
In the case of COc1ccc(OC)c(NC(=O)C2(C)CCN2Cc2cccc(OC)c2OC)c1 (configuration not stated), the Potency is reported as inconclusive [inhibitor, single point].
In the case of O=C(Nc1ccccc1)C1CC2CCC1C2 (configuration not stated), the “activity change, negative = inhibition” value is reported as inactive: -3.9%.
In the case of Cc1ccc(C(=O)NCCNS(=O)(=O)c2ccccc2)cc1, the “activity change, negative = inhibition” value is reported as inactive: 0.318%.
Cc1ccc(CNC(=O)c2cc(S(=O)(=O)N3CCCC(C)C3)cn2C)cc1 (configuration not stated) was tested, and the “activity change, negative = inhibition” value was inactive: -8.52%.
In the case of CC(C)Cc1nc(N2CCN(C(=O)C(C)C)CC2)c(C#N)c2c1CCC2, the Potency is reported as inconclusive [inhibitor, single point].
With COc1ccc(/C=C/c2c(-c3ccc(OC)cc3)sc3cc(OC)c(OC)cc23)cc1 the Potency was inconclusive [inhibitor, single point].
For O=C(CSc1nnc(SCc2cccc3ccccc23)s1)c1ccc2c(c1)OCO2, the Potency was inconclusive [inhibitor, single point].
For COc1ccc2nc(-c3ccccc3)nc(C3CCCCC3)c2c1, the “activity change, negative = inhibition” value was inactive: 11%.
Cc1ccccc1Nc1c(-c2cccc(O)c2)nc2ccc(Br)cn12 was tested, and the Potency was inconclusive [inhibitor, partial curve].
With CCOC(=O)c1c(C=O)c(C)n(Cc2ccc(Cl)cc2)c1C the Potency was inconclusive [inhibitor, partial curve, poor fit].
With Oc1ccccc1N1CCN(CC(O)COCc2ccccc2Cl)CC1 (configuration not stated) the Potency was inconclusive [inhibitor, partial curve].
COc1ccc(-c2ncc(CN3CCN(CCC(C)C)C(CCO)C3)cn2)cc1 (configuration not stated) was tested, and the Potency was inconclusive [inhibitor, full curve].
For O=S(=O)(NCc1ccc(F)cc1)c1ccc2[nH]c3c(c2c1)CCCCC3, the Potency was inconclusive [inhibitor, single point].
In the case of COc1ccc(/C=N/NC(=O)c2cc(C34CC5CC(CC(C5)C3)C4)[nH]n2)cc1O, the Potency is reported as inconclusive [inhibitor, partial curve, poor fit].
With Cc1cc(C)c(S(=O)(=O)N(C)c2ccccc2)c(C)c1 the Potency was inconclusive [inhibitor, partial curve, poor fit].
For COc1cccc(OC)c1C(=O)OCCCOC(=O)c1c(OC)cccc1OC, the Potency was inconclusive [inhibitor, full curve, poor fit].
With CCOC(=O)N1CCC(N2C(=O)c3ccccc3C2Nc2cc(C)cc(C)c2)CC1 (configuration not stated) the Potency was inconclusive [inhibitor, single point].
In the case of O=C(CCN1C(=O)/C(=C/c2ccccc2Cl)SC1=S)NCCc1ccc(O)cc1, the Potency is reported as inconclusive [inhibitor, partial curve, poor fit].
With O=C(OCCOc1ccccc1F)c1cc(S(=O)(=O)N2CCOCC2)ccc1F the “activity change, negative = inhibition” value was inactive: 1.47%.
CCS(=O)(=O)N1CCc2cc(C(=O)N3CCN(c4ccccc4)CC3)ccc21 was tested, and the “activity change, negative = inhibition” value was inactive: 1.22%.
For Nc1ncc(Br)cc1S(=O)(=O)NCCC(=O)NCCc1ccccc1, the Potency was inconclusive [inhibitor, full curve, poor fit].
With CCOc1ccc(CC(=O)NCCS(=O)(=O)N2CCN(c3ccccc3OC)CC2)cc1 the Potency was inconclusive [inhibitor, single point].
For O=C(NC(c1ccc(Cl)cc1)c1cnccn1)C1CCN(Cc2ccc(Cl)cc2)CC1 (configuration not stated), the Potency was inconclusive [inhibitor, single point].
CCOC(=O)c1sc(NC(=O)c2ccccc2)cc1C was tested, and the “activity change, negative = inhibition” value was inactive: -3.64%.
With CC1CCN(C(=S)NC(=O)c2ccccc2)CC1 the Potency was inconclusive [inhibitor, full curve, poor fit].
With Cc1ccc(S(=O)(=O)c2nc(-c3cccs3)oc2SC(C)c2ccccc2)cc1 (configuration not stated) the “activity change, negative = inhibition” value was inactive: 12.6%.
With Fc1ccccc1CNC(=S)Nc1ccc(Cl)cc1 the Potency was inconclusive [inhibitor, single point].
CC(Sc1nnc(-c2ccccc2F)n1C1CC1)C(=O)NCc1ccco1 (configuration not stated) was tested, and the Potency was inconclusive [inhibitor, partial curve].
COCCNCCCOc1ccc(Cl)cc1Br was tested, and the Potency was inconclusive [inhibitor, partial curve, poor fit].
CCOc1ccc(NC(=O)c2ccccc2C(=O)c2ccccc2)cc1OCC was tested, and the Potency was inconclusive [inhibitor, single point].
With COc1ccc(C(CC(=O)Nc2nccs2)C(C)C)cc1 (configuration not stated) the activity change, negative = inhibition was inconclusive: -34.5% [inhibitor].
For CN(CC1COc2ccccc2O1)C(=S)NC1CCCCC1 (configuration not stated), the Potency was active: 5.01 µM.
For COc1cccc(CNC(=O)c2cc(C3CC3)nc3c2cnn3C(C)C)c1, the Potency was inconclusive [inhibitor, partial curve, poor fit].
With CCN(C(=O)CN1C(=O)NC2(CCCc3ccccc32)C1=O)c1ccc(F)cc1 (configuration not stated) the Potency was inconclusive [inhibitor, single point].
In the case of CCc1ccc(NC(=O)Cn2c(=O)n(CCCC(=O)NCc3ccccc3OC)c(=O)c3ccccc32)cc1, the “activity change, negative = inhibition” value is reported as inactive: -5.65%.
With COC(=O)CN(C)C1CC(=O)N(c2ccc(Cl)cc2)C1=O (configuration not stated) the Potency was inconclusive [inhibitor, single point].
With CC(C)N(C(=O)N1CCN(c2ccnc3cc(Cl)ccc23)CC1)C(C)C the Potency was inconclusive [inhibitor, partial curve, poor fit].
For Cc1ccc(S(=O)(=O)NC(C)(C)CN2CCNCC2)cc1, the “activity change, negative = inhibition” value was inactive: -18.9%.
Cc1ccc(-c2cc(C(=O)N3CCN(c4ncccn4)CC3)c3ccccc3n2)cc1 was tested, and the Potency was inconclusive [inhibitor, single point].
For N#Cc1c(NCCN)nc(-c2ccco2)c2c1CCCC2, the “activity change, negative = inhibition” value was inactive: -15.3%.
With COc1ccc(-c2cc(C(=O)OCC(=O)N3CCOCC3)c3ccccc3n2)cc1 the Potency was inconclusive [inhibitor, single point].
With COc1ccccc1N1CCN(C2=Nc3cccc4cccc2c34)CC1 the Potency was inconclusive [inhibitor, single point].
In the case of COc1cc(C)ccc1OCCSc1nc2ccc(NC(=O)c3ccc4c(c3)OCO4)cc2s1, the Potency is reported as inconclusive [inhibitor, partial curve, poor fit].
For Cc1nn(Cc2ccc(C(=O)Nc3ccc(C(=O)OC(C)C)cc3)o2)c(C)c1Cl, the “activity change, negative = inhibition” value was inactive: 0%.
In the case of CCOC(=O)c1cc(-c2ccccc2)n(CCC(=O)Nc2ccc(OC)c(Cl)c2)c1C, the Potency is reported as inconclusive [inhibitor, partial curve, poor fit].
For CCCc1cc2c(=O)c(-c3ccc4c(c3)OCCO4)coc2cc1OS(C)(=O)=O, the Potency was inconclusive [inhibitor, partial curve, poor fit].
O=C(COC(=O)c1ccccc1Nc1ccc(SC(F)F)cc1)NC1CC1 was tested, and the Potency was inconclusive [inhibitor, partial curve, poor fit].
With CC1CC(OCC(O)CN2CCCCC2C)CC(C)(C)C1 (configuration not stated) the activity change, negative = inhibition was inconclusive: -68.3% [inhibitor].
Cc1cc(NC(=O)CN(C)S(=O)(=O)c2ccc3c(c2)CCCC(=O)N3)ccc1Br was tested, and the Potency was inconclusive [inhibitor, single point].
For Cc1cccc(C)c1N=Nc1c(C)cc(O)cc1C, the Potency was inconclusive [inhibitor, single point].
For CC(C)CN1CCC(=O)N([C@H](COc2ccccc2)Cc2ccccc2)CC1, the Potency was inconclusive [inhibitor, single point].
Cc1nc(Nc2cccc(Cl)c2)c2oc3ccccc3c2n1 was tested, and the Potency was inconclusive [inhibitor, single point].
Cc1ccc(NC(=O)CSc2ncccc2C(=O)Oc2ccccc2Cl)cc1Cl was tested, and the Potency was inconclusive [inhibitor, single point].
COc1ccc(-c2nc(N/N=C(\C)c3ccc(O)cc3)c3ccccc3n2)cc1 was tested, and the “activity change, negative = inhibition” value was inactive: 3.81%.
For C=CCn1c(=N)n(CC(=O)OCC)c2ccccc21, the “activity change, negative = inhibition” value was inactive: -6.45%.
With Oc1ccc(Cl)c(CN2CCN(c3ncc(Cc4ccccc4)cn3)CC2)c1 the Potency was inconclusive [inhibitor, single point].
Cc1ccc(C(C)C)c(OCCNC(=S)Nc2cccc3ccccc23)c1 was tested, and the Potency was inconclusive [inhibitor, partial curve, poor fit].
For Cc1cc(C)n(CCc2nc(-c3ccc(C(C)(C)C)cc3)cs2)n1, the Potency was inconclusive [inhibitor, partial curve, poor fit].
CCOC(=O)Nc1ccc(N2CCOCC2)c(S(=O)(=O)Nc2ccc(Cl)cc2)c1 was tested, and the Potency was inconclusive [inhibitor, partial curve, poor fit].
With CC1=C(C(=O)Nc2ccc(C)cc2C)C(CC(C)C)n2nc(SCc3ccccc3C)nc2N1 (configuration not stated) the “activity change, negative = inhibition” value was inactive: 14.6%.
For Cc1cc(C)c(S(=O)(=O)NC2CCN(Cc3ccccc3)CC2)c(C)c1, the Potency was inconclusive [inhibitor, partial curve, poor fit].
In the case of CCCC[C@@H]1CNC(=S)N1CCC12CC3CC(CC(C3)C1)C2, the Potency is reported as inconclusive [inhibitor, partial curve, poor fit].
